# According to the RNAGym collection of RNA variant scans (doi:10.7554/elife.90254):
# The source gives no read counts; variants with many changes may rest on few reads.
# B1: LINE1-mini (parent)
# chain: GGCAGAGCUCAACACAGCGUGGCAAAGUGGCUGUGGCUAGACUGCC
# Variants of: B1
# Experiment: self-cleavage, relative activity (ratio to wild type); higher = more cleavage; in vitro, sequencing; the parent is a self-cleaving ribozyme
row,Variant,self-cleavage
1,C13G G21U G36A,0.15
2,A4G A11U C15U U43G,0
3,A26U G29A G30U C45U C46U,0.19
4,G2C C18A G22C U34G C45G,0
5,A4U C18G U20G U28C G44C,0
6,C15U U28G U32A G33A,0.02
7,G21A G29C A39C,0.02
8,G2U G5A A6C U38C,0.05
9,C3U G30U C45G,1.15
10,C8G A11G A24C,0.03
11,A12U G22C C31A,0.06
12,C10A C13U G30U C37U,0.01
13,G1U A4G C23G,0.14
14,G5C C10G A11G,0.03
15,G7A G17C G29A G30C,0.01
16,C10A C31A G44U,0.01
17,C10A C15A A16C G17U G21C A41U C42U,0.02
18,C10A C15A A24U A39U,0.18
19,G5A C10G C18U G19C A24G G30U A39G G40U,0.01
20,G17A G30A G33C C42G,0.04
21,G2U G27A G33A,0.04
22,C3G G7C A16C A26U C31A,0.06
23,G2C U9C G17A C31U,0.01
24,A6G A24G G33U G40U,0.01

row,Variant,self-cleavage
1,G7A A26U G30U U32G G40U,0.18
2,C3G U9G G44A,0.16
3,C8G C10G C15G A24C U43C,0
4,G2U G5A A16C G29U,0.01
5,A6G U20C C42G C46G,0.01
6,C15U G27C G33A C42G,0.06
7,U9C C31A U32A,0.06
8,A6U A25C U28G A39C G44U,0.07
9,G5A A26C C31U G40A C42U,0.03
10,U9C C13G A24C G30U C37A,0
11,C3U C8A C37A C46A,1.46
12,G1C A14U G22U,0.05
13,C10A G17U A24G,0.37
14,A16G G17U G33U G36C,0.01
15,G27C C37A A39G,0.04
16,C3A G7A C13G G22C,0.77
17,A6G G7U C18U G21A C46G,0.03
18,C13U G17U G36A,0.01
19,A4G G22U G33C C42A C46A,0.18
20,C18U G33U C42U C45G,0.11
21,C10G G19C U28G G29U,0.01
22,G17A G22U G35U,0.01
23,C3G C15U G27C U34G G35A,0.03
24,C8G A26U C42U,0.06

row,Variant,self-cleavage
1,C31G A39G C42G,0.03
2,G29C C31A U34A,0.04
3,C3U C31U U34A,0.04
4,C10A G21U G40A,0.01
5,A14G G40C C46G,0.01
6,A12U G21U G27U,0.06
7,C15G G21C C37U,0.05
8,G7C A11C G33U,0.01
9,C13U C18A G36U,0.02
10,C3G G27C U28G G30U G33U,0.1
11,G2U A6C C13U,0.08
12,A4G U9G C31A U32G G40C,0.12
13,C8U G29A C37A,0.06
14,A11C U34A C42A,0.03
15,G29C G35U C46U,0.05
16,U20G G35A U38G U43G,0.01
17,U9G A26U G40C,0.01
18,U9C G29C G33C,0.03
19,G2U A4C G5A G22C U32G G33U G36A,0.02
20,G19U C23A U32A U38G,0.01
21,G7A C31A A41G,0
22,C8G C23A A24U A25U U34A,0.02
23,C15A G35U C37U A39C,0.01
24,C15U A16C C18U C37U,0.12

row,Variant,self-cleavage
1,A25G G30U C45G,0.09
2,C13U C15A U20A,0.05
3,G1U G19A U43A,0.13
4,U43C C45G C46A,0.03
5,C8A C15U A16C U28A,0.01
6,A11G U32C C37A,0.01
7,A12G G22U A25G G33U U43C,0.01
8,G7U A26C G29A,0.06
9,C18A A41U C42A,0.02
10,C3U U9A A12G C18G U20A G29U,0.02
11,G2A C8U C15U G35C,0.32
12,C3A U9G A12U A24G G29C G36A C37A,0.05
13,U20A G35U C45G,0.07
14,G17U A26G U38A C42U,0.05
15,A14C C31G C37A C46G,0.01
16,G7A A25C U28C G29U,0.07
17,A6U C15A C23G,0.01
18,A11C C18G A39C A41C U43A C46U,0.01
19,C13U C23A A25U,0.01
20,C13A A16C C18A,0.02
21,C3U A11G C23G,0.04
22,C8U G21A G29A U43G G44U,0.08
23,C10G C23A A39G,0.01
24,U9A C10G C23U A26C G29U A39C,0.01

row,Variant,self-cleavage
1,U9C U34C C37A,0.06
2,C3U G35C U43C,0.08
3,C10A C23U A25U A26U C45U,0.01
4,G1A A16U A26U,0.09
5,G21C G35A C37U G40C,0.18
6,C3U C10G C15A,0.05
7,G2C G17U G27C C42G,0.1
8,A6U U9A A14C G27C G40U,0.1
9,C15G G21C G27A C37A,0.01
10,A6U G7C A12G C18U G19C A24G,0.03
11,A39U U43A C45U,0.1
12,A6U C10A C18U G21C U34C,0.01
13,C13U G21U C46U,0.03
14,A4C A11U A39G,0
15,G22A G33U U38G A39G,0.03
16,G5U G21U G22A,0.1
17,G22U C31G G40C,0.03
18,C3U C8A C18A A25U,0.2
19,U9G A16C G36A,0.04
20,G7A U9C C18U G19C G40C,0.04
21,C8U C42U C45U C46A,0.04
22,G7A A11U G17C,0.02
23,C10A A16U G33C,0.03
24,G1C U32C G36U,0.05

row,Variant,self-cleavage
1,C3U U9A A16C G27C U32G G33A,0.13
2,G1A C3U G17A,0.25
3,U9C A12G A14G,0.02
4,C3A U9G C18U C23U U28C,0.14
5,G2U C3G G7U,0.4
6,A11U C18U U20C,0.21
7,A25C U28A A39G A41U,0.02
8,A4G U9C A12C G22A G33A,0
9,C8G U9G G35A,0.16
10,G1A C3U A25C U38C A41U G44C,0.6
11,G21A A25G G29C C42U,0.15
12,A4G G29A C45U,1.29
13,G7U A26C U34A A41G C42G,0.15
14,C8G G33C G35U,0.03
15,C3A G29U G30U U34C C42U,0.17
16,C15G U34C G35U,0.04
17,G1C G33A G35U,0.03
18,U20G G21U G36U,0.01
19,A4U G30A G35U G44U,0.02
20,G5U A25C U43G C45G,0.02
21,C3A G22U U28C U32C,0.35
22,G1C C8G C15G G21C C31U,0.02
23,G17A U34G C37U,0.07
24,G7A A25U A39U U43C G44U,0.06

row,Variant,self-cleavage
1,G2C C8A A24U A39U C46G,0.12
2,G7U A12U G35A C46U,0.08
3,C3G C18A A25C C31U,0.05
4,A4U A12U C18A A24C A26G,0.02
5,C15U C23A G35A C37G,0
6,A4U A6U C18A,0.04
7,G5C G30C G35A G44A,0.01
8,G5A G29A U32A A39G,0.04
9,A14G C15U C45U,0.04
10,A4G A14U G17A,0.1
11,G2U A11G G35C,0.04
12,G17U G22U G30A U34A C37A,0.08
13,U9A G17U G19A G27A G36A,0.58
14,C18U G44C C46A,0.05
15,C3U G5C G7U C15G G22U G36A,0.82
16,C23U G30C U38A,0.82
17,A6G G30A G33A,0.03
18,G1U A25C G35U,0.02
19,G5A A39U G40U,0.12
20,G1A C23U G27A G40C,0.12
21,C8U A25U A39G G40A A41C,0.02
22,G5C C15A U20G U28G U43C G44A,0
23,C15U G17C G30A,0.08
